Data on 22 compounds can be found in the supplement of paper PMC11181314.

For the experiment, the system named is U2OS. Put plainly: Cell Painting induction (percent of morphological features significantly changed vs DMSO); higher = stronger morphological change. To be noted: 10 µM, 20 h. Here is the method: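 Cell Painting assay in U2OS cells: compounds at 10 µM for 20 h, six dyes, 579 robust CellProfiler features as Z-scores vs DMSO median (MAD). Induction is the % of significantly changed features (active if ≥5%); relative cell count is in % of DMSO. The primary run holds DCM compounds preselected for induction ≥10%; the confirmation repeat defines active compounds (370 of 549). Replicate agreement is low, attributed to precipitation.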

Where [1] appears, read: run: primary screen (compounds selected for induction >=10%).

Each structure is given as a SMILES string. The list shows a part of the results. Single values of this set are uncertain.
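Note: stains mark DNA, RNA and nucleoli, ER, actin, Golgi, plasma membrane and mitochondria, read by high-content imaging, with DMSO controls at matching solvent concentration.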

For `COc1ccc(S(=O)(=O)NC2CC(C)(C)NC(C)(C)C2)c2ccccc12`, the “Cell Painting induction” value was active: 31.4% (run: confirmation repeat) and 31.6% under setting [1].
On to `COc1ccccc1N1CCN(CCC(=O)Nc2cccc(F)c2)CC1`, for which the “Cell Painting induction” value by setting is: (run: confirmation repeat) inactive: 1.6%; under setting [1], 14.3%.
Consider `Cc1ccc2oc(=O)c3cc(C(=O)Nc4cc(-c5cccc(F)c5)no4)sc3c2c1`, for which the “Cell Painting induction” value is inactive: 0.2% (run: confirmation repeat) and 20.6% under setting [1].
The corresponding values for `Cc1ccc(C(=O)c2coc3ccc(O)c(CN(C)C)c23)cc1` are active: 12.1% and 11.4%.
The matching figures for `COc1ccccc1-c1c(C)nn2c(N3CCN(c4ccccc4OC)CC3)cc(C)nc12`: inactive: 0.7% and 22.1%.
Consider `Nc1nc(CN2CCN(c3ccccc3)CC2)nc(Nc2ccc(Cl)cc2)n1`, for which the “Cell Painting induction” value reads like this: (run: confirmation repeat) active: 18.8%; under setting [1], 11.9%.
The matching figures for `CCc1ccc(-c2cc(C)no2)cc1S(=O)(=O)N1CCN(c2ccc(OC)cc2)CC1`: active: 22.1% and 18.8%.
As to `CC1=C(C(=O)OCC2CCCO2)C(c2ccc(C)cc2)C2=C(O)CC(C)(C)CC2=N1` (centres undefined), the “Cell Painting induction” value reads like this: (run: confirmation repeat) active: 8.3%; under setting [1], 12.4%.
On to `COc1ccc(NC(=O)C2Cc3cc(S(=O)(=O)N4CCCCC4)ccc3N2C(C)=O)cc1Cl` (centres undefined), for which the “Cell Painting induction” value by setting is: (run: confirmation repeat) active: 13.3%; under setting [1], 15.2%.
Regarding `Cc1cc(-c2ccc(C)c(S(=O)(=O)NCCCN(Cc3ccccc3)C(C)C)c2)on1`, the “Cell Painting induction” value is, setting by setting: (run: confirmation repeat) active: 50.3%; under setting [1], 36.1%.
For the compound `COc1ccc(-n2nc(C(=O)NCC(=O)NC3CCCCC3)c3ccccc3c2=O)cc1`, the “Cell Painting induction” value (run: confirmation repeat) was active: 29.9% and the “Cell Painting induction” value under setting [1] stood at 21.2%.
For `CCOC(=O)c1[nH]c2c(c1-c1ccc(OC)cc1)C(=O)CC(c1ccc(OC)c(OC)c1)C2` (centres undefined), the “Cell Painting induction” value reads like this: (run: confirmation repeat) active: 7.6%; under setting [1], 13.1%.
As to `O=C(Nc1ccc(NC(=S)NC(=O)c2ccco2)cc1)c1ccccc1`, the “Cell Painting induction” value is, setting by setting: (run: confirmation repeat) active: 16.2%; under setting [1], 34%.
Consider `CCn1c(=O)n(CC)c2cc(N3CCCC3)c(NC(=O)c3ccccc3F)cc21`, for which the “Cell Painting induction” value was active: 11.7% (run: confirmation repeat) and 11.9% under setting [1].
Take `CCCn1c(=O)c(C(=O)NCc2ccccc2Cl)c(O)c2ccccc21`: the “Cell Painting induction” value (run: confirmation repeat) was inactive: 0% and the “Cell Painting induction” value under setting [1] was 16.9%.
In the case of `CCOC(=O)c1cc(-c2ccccc2)n(CCC(=O)N2CCN(c3ccccc3OC)CC2)c1C`, the “Cell Painting induction” value reads like this: (run: confirmation repeat) active: 31.4%; under setting [1], 25.7%.
For `COc1cccc(NC(=O)CSc2nc3ccccc3nc2N2CCOCC2)c1`, the “Cell Painting induction” value was active: 26.1% (run: confirmation repeat) and 14.3% under setting [1].
As to `CCC1Oc2ccccc2N(CC(=O)NCCCN2CCN(c3ccc(OC)cc3)CC2)C1=O` (centres undefined), the “Cell Painting induction” value runs as follows: (run: confirmation repeat) inactive: 4.8%; under setting [1], 10.7%.
In the case of `CCC1Oc2ccc(C)cc2N(CC(=O)NCCCN2CCN(Cc3ccccc3)CC2)C1=O` (centres undefined), the “Cell Painting induction” value (run: confirmation repeat) was active: 16.9% and the “Cell Painting induction” value under setting [1] is 16.9%.
In the case of `O=C(CSc1nc2cc3c(cc2c(=O)n1CCC(=O)N1CCN(c2ccccc2)CC1)OCO3)c1ccc(Cl)cc1`, the “Cell Painting induction” value is, setting by setting: (run: confirmation repeat) inactive: 0.3%; under setting [1], 22.1%.
For the compound `COc1ccc(CNC(=O)OCc2nccnc2C(=O)Nc2ccc(Br)cn2)cc1`, the “Cell Painting induction” value reads like this: (run: confirmation repeat) active: 35.9%; under setting [1], 53%.
On to `CCOC(=O)Cn1c(CN(Cc2ccccc2)Cc2ccccc2)nc2c1c(=O)[nH]c(=O)n2C`, for which the “Cell Painting induction” value is inactive: 1.6% (run: confirmation repeat) and 21.2% under setting [1].
